# Test results as given in a collection of fitness landscapes (doi:10.1126/science.1257360).
# This is one part of the list.
# B1: PhoQ; a variant is named by its letters at X, in order, P23837 (parent)
# chain: MKKLLRLFFPLSLRVRFLLATAAVVLVLSLAYGMVALIGYSVSFDKTTFRLLRGESNLFYTLAKWENNKLHVELPENIDKQSPTMTLIYDENGQLLWAQRDVPWLMKMIQPDWLKSNGFHEIEADVNDTSLLLSGDHSIQQQLQEVREDDDDAEMTHSVAVNVYPATSRMPKLTIVVVDTIPVELKSSYMVWSWFIYVLSANLLLVIPLLWVAAWWSLRPIEALAKEVRELEEHNRELLNPATTRELTSLVRNLNRLLKSERERYDKYRTTLTDLTHSLKTPLXXLQXXLRSLRSEKMSVSDAEPVMLEQISRISQQIGYYLHRASMRGGTLLSRELHPVAPLLDNLTSALNKVYQRKGVNISLDISPEISFVGEQNDFVEVMGNVLDNACKYCLEFVEISARQTDEHLYIVVEDDGPGIPLSKREVIFDRGQRVDTLRPGQGVGLAVAREITEQYEGKIVAGESMLGGARMEVIFGRQHSAPKDE
# Variants of: B1
# Assay: enrichment ratio after two sorts for PhoP signalling (ratio (wild type AVST 3.29)); higher = more functional
# Details: with PhoP (E. coli)
row,Variant,enrichment ratio
1,HFDH,≤ 0.25
2,ERGD,≤ 0.25
3,YYPE,≤ 0.25
4,GALV,9.65
5,NFDM,≤ 0.25
6,YHDD,≤ 0.25
7,DCHI,≤ 0.25
8,FSPQ,≤ 0.25
9,QNNH,≤ 0.25
10,QDSP,≤ 0.25
11,QSSR,≤ 0.25
12,LSAP,≤ 0.25
13,EIRP,≤ 0.25
14,TWCH,≤ 0.25
15,LFSG,≤ 0.25
16,NEIN,≤ 0.25
17,IDGI,≤ 0.25
18,DYAN,≤ 0.25
19,PAYE,≤ 0.25
20,LEFC,12.9
21,WRHV,≤ 0.25
22,PFWI,≤ 0.25
23,DSIV,≤ 0.25
24,YHEG,≤ 0.25
25,FMAD,≤ 0.25
26,TGER,≤ 0.25

row,Variant,enrichment ratio
1,FWHD,≤ 0.25
2,MLMT,≤ 0.25
3,IQPF,≤ 0.25
4,KRIY,≤ 0.25
5,FPLD,≤ 0.25
6,HQRI,≤ 0.25
7,LGSA,≤ 0.25
8,TNDD,≤ 0.25
9,LLPA,≤ 0.25
10,KIYT,≤ 0.25
11,LERR,≤ 0.25
12,SVIA,1.12
13,RVRQ,1.66
14,DNFG,≤ 0.25
15,ELVR,≤ 0.25
16,TGEP,≤ 0.25
17,YKTY,≤ 0.25
18,WTAG,≤ 0.25
19,YLHF,≤ 0.25
20,RQQK,≤ 0.25
21,AMTN,27.1
22,SYGM,≤ 0.25
23,KKHH,≤ 0.25
24,FNER,≤ 0.25
25,ARCW,≤ 0.25
26,IWTD,≤ 0.25

row,Variant,enrichment ratio
1,WWHK,≤ 0.25
2,RHKV,≤ 0.25
3,PLLA,≤ 0.25
4,LLDC,≤ 0.25
5,TTME,7.69
6,RMTS,≤ 0.25
7,TPFS,≤ 0.25
8,NQFD,≤ 0.25
9,ASNM,5.71
10,EITK,≤ 0.25
11,ALSK,2.03
12,NGAF,≤ 0.25
13,DKGK,≤ 0.25
14,AGFF,≤ 0.25
15,RQRT,≤ 0.25
16,SLRH,≤ 0.25
17,GNYT,≤ 0.25
18,YNPH,≤ 0.25
19,YKGP,≤ 0.25
20,DQAA,≤ 0.25
21,NCHW,≤ 0.25
22,KRNW,≤ 0.25
23,VGTR,≤ 0.25
24,KEPF,≤ 0.25
25,RKLW,≤ 0.25
26,HVDI,≤ 0.25

row,Variant,enrichment ratio
1,ASHH,≤ 0.25
2,HGAE,≤ 0.25
3,SGDN,≤ 0.25
4,NWFV,≤ 0.25
5,FLSF,≤ 0.25
6,MHCV,≤ 0.25
7,VMGM,≤ 0.25
8,SPQK,≤ 0.25
9,HDNC,≤ 0.25
10,NIST,≤ 0.25
11,AYQP,≤ 0.25
12,MMNI,≤ 0.25
13,LANP,≤ 0.25
14,HRFK,≤ 0.25
15,ATNL,5.25
16,FFGC,≤ 0.25
17,VTRN,≤ 0.25
18,SNHM,0.971
19,QRSM,≤ 0.25
20,VVPN,0.63
21,IRQD,≤ 0.25
22,RMNT,≤ 0.25
23,KTMA,≤ 0.25
24,ERIQ,≤ 0.25
25,SFQE,≤ 0.25
26,GHKA,≤ 0.25

row,Variant,enrichment ratio
1,PNQL,≤ 0.25
2,TTIA,4.48
3,DLIK,≤ 0.25
4,WWSY,≤ 0.25
5,YTMQ,0.469
6,MDQI,≤ 0.25
7,SWDV,≤ 0.25
8,PTYV,≤ 0.25
9,WRSP,≤ 0.25
10,MNTK,≤ 0.25
11,ARWE,≤ 0.25
12,LNGW,≤ 0.25
13,DHSF,≤ 0.25
14,MHEW,≤ 0.25
15,FWDR,≤ 0.25
16,QPTC,≤ 0.25
17,QCGI,≤ 0.25
18,RQCI,≤ 0.25
19,EDNV,≤ 0.25
20,PYMH,≤ 0.25
21,LSSV,≤ 0.25
22,PDSR,≤ 0.25
23,ICEY,≤ 0.25
24,PIGR,≤ 0.25
25,FCWH,≤ 0.25
26,DLKS,≤ 0.25

row,Variant,enrichment ratio
1,YGDD,≤ 0.25
2,DIHQ,≤ 0.25
3,DAPH,≤ 0.25
4,ASCH,13.6
5,TSKI,≤ 0.25
6,FEYD,≤ 0.25
7,HFYQ,≤ 0.25
8,ACVF,11.9
9,DNGA,≤ 0.25
10,QSND,1.9
11,HIPD,≤ 0.25
12,WHDK,≤ 0.25
13,WEWP,≤ 0.25
14,MLRK,≤ 0.25
15,WHYW,≤ 0.25
16,GSCT,7.04
17,HWMD,≤ 0.25
18,HWKH,≤ 0.25
19,VNQP,≤ 0.25
20,YIRP,≤ 0.25
21,AAAF,2.38
22,VDRP,≤ 0.25
23,IFAI,≤ 0.25
